Measurements: paper PMC4336329 (PLoS ONE, 2015)
In all, about 310,000 compounds went through this assay and about 2,200 (0.71%) showed an effect of 50% or more. The effect is printed as a negative number. This is one part of the list.

target: human ether-à-go-go-related gene (hERG) potassium channel (human, UniProt Q12809); assay: primary screen, population patch clamp on CHO cells stably expressing hERG
Sequence (Q12809 whole entry, looked up): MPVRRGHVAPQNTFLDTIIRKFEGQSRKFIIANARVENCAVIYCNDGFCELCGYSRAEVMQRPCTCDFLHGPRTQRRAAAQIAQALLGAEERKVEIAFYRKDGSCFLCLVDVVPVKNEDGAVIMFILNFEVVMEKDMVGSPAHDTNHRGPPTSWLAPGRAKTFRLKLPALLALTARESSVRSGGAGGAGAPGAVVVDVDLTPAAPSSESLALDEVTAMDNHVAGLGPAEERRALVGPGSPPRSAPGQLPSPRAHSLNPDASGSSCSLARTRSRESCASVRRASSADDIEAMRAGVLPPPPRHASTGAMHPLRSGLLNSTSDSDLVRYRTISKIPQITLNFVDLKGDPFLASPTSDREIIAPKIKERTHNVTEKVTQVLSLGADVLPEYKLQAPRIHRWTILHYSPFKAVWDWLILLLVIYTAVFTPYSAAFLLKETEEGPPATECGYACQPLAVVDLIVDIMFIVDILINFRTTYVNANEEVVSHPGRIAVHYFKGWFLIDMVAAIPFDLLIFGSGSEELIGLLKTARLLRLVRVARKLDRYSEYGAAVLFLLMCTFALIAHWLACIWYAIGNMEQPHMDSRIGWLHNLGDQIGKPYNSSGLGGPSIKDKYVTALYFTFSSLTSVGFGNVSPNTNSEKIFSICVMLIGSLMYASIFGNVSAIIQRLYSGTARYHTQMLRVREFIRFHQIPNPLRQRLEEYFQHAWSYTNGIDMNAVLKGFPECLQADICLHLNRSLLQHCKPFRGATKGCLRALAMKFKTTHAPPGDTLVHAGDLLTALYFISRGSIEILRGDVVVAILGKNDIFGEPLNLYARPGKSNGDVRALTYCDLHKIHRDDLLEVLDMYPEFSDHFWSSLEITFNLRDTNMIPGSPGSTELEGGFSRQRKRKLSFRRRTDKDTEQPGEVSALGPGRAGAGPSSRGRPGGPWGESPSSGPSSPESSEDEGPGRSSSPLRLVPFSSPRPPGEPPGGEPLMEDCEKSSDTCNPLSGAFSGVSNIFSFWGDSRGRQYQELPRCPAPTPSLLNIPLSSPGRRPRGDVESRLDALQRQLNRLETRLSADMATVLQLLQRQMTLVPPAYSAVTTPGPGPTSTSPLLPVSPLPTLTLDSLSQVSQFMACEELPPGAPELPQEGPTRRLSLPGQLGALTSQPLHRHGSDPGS

Row | Compound | hERG current change (%, negative = inhibition) at 1uM [%]
1 | CC(NCc1ccc2c(c1)OCO2)c1ccccc1.Cl (stereo not shown) | 12.7
2 | CN1CC(C(=O)c2ccc(F)cc2)C(c2c(F)cccc2Cl)C1 (stereo not shown) | -25.1
3 | CC1=C(C(=O)O)N2C(=O)C(NC(=O)c3ccn(C)n3)C2SC1 (stereo not shown) | 10.2
4 | Cc1cccc(-n2c(C)cc(/C=N/O)c2C)c1 | -4.26
5 | CN(C(=O)COC(=O)c1ccc(Br)o1)c1c(N)n(Cc2ccccc2)c(=O)[nH]c1=O | 15.5
6 | CN(C)S(=O)(=O)N1CCN(CC(=O)Nc2cc(Cl)ccc2Cl)CC1 | -20.8
7 | O=C(c1cc(C(=O)N2CCCC2)cc([N+](=O)[O-])c1)N1CCCC1 | 1.45
8 | O=C(NCCN1C(=O)CSC1=O)C1CC(=O)N(c2ccccc2)C1 (stereo not shown) | 2.75
9 | NS(=O)(=O)c1ccc(NC(=S)NNC(=O)c2cccs2)cc1 | 7.69
10 | O=C(Nc1cccc(F)c1)/C(=C\c1ccco1)NC(=O)c1ccco1 | 24.2
11 | Cc1cc(C)n2nc(C(=O)OCC(=O)N3CC(C)CC(C)C3)nc2n1 (stereo not shown) | 16.6
12 | Cc1cccc(/N=C/c2c(C)[nH]n(-c3ccccc3)c2=O)n1 | 6.86
13 | COC(=O)c1cn(CC(=O)N2CCCCCC2)c2ccccc12 | 8.63
14 | Cc1cc(C)c2c(N)c(C(=O)NCc3ccco3)sc2n1 | 10.2
15 | COc1cccc(NC(=O)CN(C)C(=O)CCSc2ccc(C)cc2)c1 | 2.68
16 | CCOC(=O)Nc1ccccc1C(=O)Nc1cc(C)cc(C)c1 | 19.5
17 | COc1ccc(NC(=S)N2CCN(CCN3C(=O)c4cccc5cccc(c45)C3=O)CC2)cc1 | 2.95
18 | COc1ccc(-n2c(O)c(/C=N/NS(=O)(=O)c3cccc([N+](=O)[O-])c3)c3ccccc3c2=O)cc1OC | 3.15
19 | Cc1ccc(S(=O)(=O)NCCC(=O)Nc2ccc3c(c2)OCO3)cc1 | 7.95
20 | CC(C)OP(=O)(c1ccc(N(C)C)cc1)C(Nc1ccccc1)c1ccccc1 (stereo not shown) | 12
21 | Cc1cccc(C(=O)Nc2ccc3ccccc3c2)c1 | 15.7
22 | COc1ccc(S(=O)(=O)N2CCCC(C(=O)NCc3ccc4c(c3)OCO4)C2)cc1 (stereo not shown) | 9.72

Row | Compound | hERG current change (%, negative = inhibition) at 1uM [%]
23 | CC(C)S(=O)(=O)C/C(N)=N/OS(=O)(=O)c1ccc(Cl)cc1 | 8.08
24 | Cc1ccc2c(Cl)cc(Cl)c(OCC(=O)NCCc3ccccn3)c2n1 | 5.98
25 | CCCN1CCN(C(=O)C2CCN(S(=O)(=O)c3ccc4c(c3)NC(=O)C(C)S4)CC2)CC1 (stereo not shown) | 23.9
26 | COc1ccccc1P(=O)(c1ccccc1)c1ccc([N+](=O)[O-])cc1 (stereo not shown) | -4.32
27 | Cc1ccc(NC(=O)CCC(=O)NNC(=O)/C=C/C(=O)O)c(C)c1 | 3.72
28 | O=c1[nH][nH]c(=O)c2cc(N3CCCC3)ccc12 | 3.68
29 | Cc1ccc(NC(=O)N2CCc3ccccc32)cc1C | 3.01
30 | COc1cccc(CN2CC(C(=O)NCCSc3nnnn3C)CCC2=O)c1 (stereo not shown) | 12.1
31 | Nc1c(S(=O)(=O)c2cccc(Cl)c2)c2nc3ccccc3nc2n1CCN1CCOCC1 | 2.5
32 | CCC(C)(C)c1nnc(NC(=O)CCC2CCCCC2)s1 | 10.1
33 | O=C(COC(=O)CCCOc1ccc(Cl)cc1Cl)Nc1cccc(Cl)c1 | 4.25
34 | N#Cc1cn(CCCOc2ccccc2)c2ccccc12 | 11.3
35 | CC(C)c1cc(C(=O)O)n(-c2ccccc2)n1 | 9.09
36 | COc1cccc(/C=N/n2c(COc3ccccc3)n[nH]c2=S)c1O | 11.5
37 | O=c1[nH]c(CCC2CCCC2)nc2ccccc12 | 4.67
38 | COc1ccc(S(=O)(=O)N(CC(=O)NCc2cccnc2)c2ccc(C)cc2)cc1OC | 10
39 | COC(=O)c1ccc(Nc2cc(C)nc3nc(C)nn23)cc1 | -8.75
40 | COc1ccccc1NC(=S)N(Cc1ccccc1)Cc1cccnc1 | 8.69
41 | Cc1cc([N+](=O)[O-])nn1CC(=O)N1CCN(Cc2ccccc2)CC1 | 1.28
42 | CCc1cc2c(=O)n3c(nc2s1)-c1[nH]c2ccc(OC)cc2c1CC3 | 17.9
43 | CSc1nsc(SC)c1C(=O)N1CCN(S(=O)(=O)c2ccc(C)cc2)C1C(C)C (stereo not shown) | 12.8
44 | CCN(Cc1ccccc1)C(=O)Cn1c(=O)n(CCC(=O)N2CCCCC2)c(=O)c2sccc21 | 11.3

Row | Compound | hERG current change (%, negative = inhibition) at 1uM [%]
45 | CCOc1ccc(C(=O)Nc2cc(-c3nc4ccccc4[nH]3)ccc2Cl)cc1[N+](=O)[O-] | 2.58
46 | CCCN1CC(=O)N2Cc3[nH]c4ccccc4c3C[C@H]2C1=O | 13
47 | Cc1ccccc1-n1c(C)nnc1SCC(=O)NC1CCCc2ccccc21 (stereo not shown) | 7.63
48 | CCOC(=O)CNc1nc(Cl)nc(Nc2ccccc2)n1 | 27.5
49 | COc1ccc(OCC(=O)NCCNC(=O)c2cccnc2)cc1 | 22.9
50 | CCOC(=O)c1c(C)[nH]c(C(=O)N/N=C/c2cc([N+](=O)[O-])ccc2O)c1C | 23.1
51 | COc1ccc(-c2csc(NC(=O)c3ccccc3C(=O)O)n2)cc1 | 6.61
52 | Cc1cc2ccc(C)c(C)c2nc1SCC(=O)c1cccs1 | 2.07
53 | O=C1NC(=O)C(=Cc2coc3ccc(O)cc3c2=O)C(=O)N1 | 8.19
54 | CC(=O)c1ccc(N2CCN(C(=O)CCN3C(=S)NC(C)(C)CC3C)CC2)cc1 (stereo not shown) | 9.14
55 | CC(=O)Nc1cccc(NC(=O)c2cccc(OCc3ccccc3)c2)c1 | 13.8
56 | COc1ccccc1OCCNC(=O)C1CC(=O)N(c2ccc3c(c2)OCCO3)C1 (stereo not shown) | 9.49
57 | Cc1c(C(=O)OCC(C)(C)CN(C)C)oc2ccccc12.Cl | -28.6
58 | Nc1nc(-c2ccccc2Br)cs1 | 10.5
59 | Cc1cccc(C)c1NC(=O)Cn1c(=O)n(CCCC(=O)NCc2ccco2)c(=O)c2sccc21 | 1.63
60 | COc1cc(C(=O)OCC(=O)Nc2cc(-c3cc(C)c(C)cc3C)nn2-c2ccccc2)cc(OC)c1OC | 16.1
61 | CCc1nnc2sc(-c3ccc(NC(=O)c4ccc5c(c4)OCCO5)cc3)nn12 | 22.1
62 | O=C1C=C(c2ccc(Cl)c(C(F)(F)F)c2)C[C@@H](c2ccc3c(c2)OCO3)C1 | 12.8
63 | COc1ccc(CC(=O)NC2CCS(=O)(=O)C2)cc1 (stereo not shown) | 4.38
64 | Cc1cc(NC(=O)CCC(=O)N(Cc2ccco2)C(C(=O)NCC2CCCO2)c2ccncc2)no1 (stereo not shown) | 10.2
65 | O=C(Nc1nc2ccccc2s1)C1c2ccccc2Oc2ccccc21 | 2.78
66 | CSc1nc2nc3c(c(=O)n2[nH]1)CCC3 | 1.88

Row | Compound | hERG current change (%, negative = inhibition) at 1uM [%]
67 | Cc1ccc(/C=N/n2cnc3sc(-c4ccccc4)cc3c2=O)o1 | 6.12
68 | COC(=O)c1ccc(/C=N/NC(=O)C(=O)NCc2ccccc2)cc1 | 7.96
69 | NS(=O)(=O)c1ccc(NC(=S)Nc2ccc(F)c(F)c2)cc1 | 11.3
70 | Fc1ccccc1/C=N/n1c(C2CCCCC2)n[nH]c1=S | 10.4
71 | C[C@H](NC(=O)C1CC(=O)N(c2ccc3c(c2)OCO3)C1)C(=O)NCc1ccco1 (stereo partly shown) | 7.24
72 | NNC(=O)c1cccc(O)c1 | 13
73 | C[C@@]12CC(=O)NC1N(C(=O)c1cccc(C(F)(F)F)c1)C(c1ccccc1OC(=O)c1cccc(C(F)(F)F)c1)C2 (stereo partly shown) | 12.2
74 | Cc1ccc(S(=O)(=O)NN=C2C3CC4CC(C3)CC2C4)cc1[N+](=O)[O-] | 13
75 | COc1ccc(NC(=O)c2ccccc2NC(=O)c2ccco2)cc1 | 13.6
76 | COc1ccccc1-n1c(C)nc2cc(C(=O)NCc3ccc4c(c3)OCO4)ccc21 | 13.8
77 | CNC(=S)NCCN1CCOCC1 | 0.884
78 | O=C1NC(=O)C(=Cc2cccc(OCCOc3ccccc3)c2)C(=O)N1 | 1.97
79 | CCCc1nc2ccccc2c(C(=O)OCC(=O)NCc2ccco2)c1CC | 3.11
80 | Cc1occc1C(=O)N1CCCC(Nc2ccc(F)cc2)C1 (stereo not shown) | 12.6
81 | Cc1cc(C)c(C)c(SCC(=O)Nc2oc(C)c3c(C)n[nH]c(=O)c23)c1C | 8.14
82 | O=C(CCC(=O)N1CCCC1)N1CCCC1 | 34.3
83 | COC(=O)c1ccc(NC(=O)CN(Cc2ccc(Cl)cc2)S(C)(=O)=O)cc1 | 1.88
84 | COc1ccc(N(C(=O)C2CSC(=O)C2)C(C(=O)NC(C)(C)C)c2ccncc2)cc1 (stereo not shown) | 10
85 | COc1ccc(CC(=O)Nc2cc(Cl)ccc2C(=O)O)cc1 | 9.96
86 | Cc1ccc(C(=O)N2CCN(c3nc4ccccc4n3C)CC2)cc1 | -34.6
87 | CN(CCCNC(=O)C1CCCN(S(=O)(=O)c2cnc[nH]2)C1)c1ccccc1 (stereo not shown) | 12.8
88 | COc1ccccc1N1CCN(c2nc(C)cc(=O)[nH]2)CC1 | 13.4
